Results taken from the supplement of paper PMC3334620.
In all, about 33,000 sequences were measured (“E-score (-0.5 to 0.5)”: median about -0.054, highest 2% from about 0.35 on). Some of the results follow.

target: T1, Stb5 (UniProt P38699); assay: PBM E-score (8-mer binding enrichment) (E-score (-0.5 to 0.5)); higher = stronger / more preferred TF binding; most listed sequences are background and not binding sites; conditions: protein concentration: 200 nM; construct: GST-full length
T1 sequence: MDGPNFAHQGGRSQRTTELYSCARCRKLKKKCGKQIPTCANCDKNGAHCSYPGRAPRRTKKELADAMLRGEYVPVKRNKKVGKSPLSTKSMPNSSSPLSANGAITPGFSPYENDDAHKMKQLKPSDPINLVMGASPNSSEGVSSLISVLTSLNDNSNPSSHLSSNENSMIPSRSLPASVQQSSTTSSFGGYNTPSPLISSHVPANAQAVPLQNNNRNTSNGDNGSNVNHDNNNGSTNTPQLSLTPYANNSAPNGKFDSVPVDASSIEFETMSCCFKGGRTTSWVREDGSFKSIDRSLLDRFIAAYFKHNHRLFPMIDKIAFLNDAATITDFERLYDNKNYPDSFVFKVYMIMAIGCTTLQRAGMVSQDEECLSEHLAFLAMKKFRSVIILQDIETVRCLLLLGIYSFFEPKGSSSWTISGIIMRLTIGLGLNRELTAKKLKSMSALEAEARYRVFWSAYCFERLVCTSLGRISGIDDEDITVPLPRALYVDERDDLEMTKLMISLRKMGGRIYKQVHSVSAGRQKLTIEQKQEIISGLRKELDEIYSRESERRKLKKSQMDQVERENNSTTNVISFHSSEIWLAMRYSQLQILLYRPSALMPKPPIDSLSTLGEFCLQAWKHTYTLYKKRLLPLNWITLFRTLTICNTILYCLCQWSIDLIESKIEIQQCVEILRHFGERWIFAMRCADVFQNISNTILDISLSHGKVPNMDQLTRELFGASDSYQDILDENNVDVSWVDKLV
How it was run: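 GST-tagged yeast TFs (full-length or DNA-binding domain) were made by PURExpress in vitro transcription/translation and applied at about 100-200 nM to universal all-10-mer Agilent arrays. The arrays were made double-stranded by primer extension, on fresh or once-stripped slides. Bound protein was detected with fluorescent anti-GST, and scans were normalised with masliner. Each ungapped eight-base word, pooled with its reverse complement, received an E-score (modified Wilcoxon-Mann-Whitney statistic) from the Universal PBM Analysis Suite.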

| Sequence | PBM E-score |
| --- | --- |
| ATCCGTCA | 0.162 |
| AAGTTTCT | -0.108 |
| ACGGGCGG | 0.278 |
| AAAAGTAC | 0.0236 |
| GGTTAGTA | -0.00434 |
| ACTAGTTC | -0.00942 |
| ACCCCTTG | -0.304 |
| CCAGATTA | 0.0275 |
| ATGTTACA | -0.104 |
| ATATACAG | -0.0727 |
| CAGCTTGC | -0.109 |
| GCGAACGC | 0.101 |
| CTAGCAGC | -0.116 |
| TAAGTTCA | -0.105 |
| CACTGTTC | -0.226 |
| AGTTCGGG | 0.213 |
| GCATCGTA | 0.00812 |
| GCAGTCTA | -0.141 |
| GAAATTAC | -0.00713 |
| GCAGCTAA | 0.0139 |
| CGCAGTAA | 0.132 |
| ATCTGCAG | -0.0623 |
| GGCTTGAA | -0.0431 |
| CCAACCCG | -0.0445 |
| GGTTTTAA | 0.305 |

| Sequence | PBM E-score |
| --- | --- |
| AACATGCA | -0.213 |
| AGACCCTG | -0.347 |
| TAATCGAA | -0.0124 |
| CCTAGCTC | -0.0992 |
| CAAGATGG | -0.13 |
| CCACTGCA | -0.266 |
| AAATGGGA | -0.122 |
| CAAATTGG | -0.192 |
| AGACGGCC | 0.116 |
| GCGAAAAA | 0.0259 |
| AGACCTAC | -0.0437 |
| CATCTAAG | 0.0271 |
| TCGATAAA | 0.092 |
| CACTTTGG | 0.0234 |
| GCCTTCAC | 0.0498 |
| AGGGGTTA | 0.239 |
| AATGGCGA | 0.0389 |
| ACACCGTG | 0.416 |
| CCGGTTGC | 0.232 |
| GTGCTTTA | -0.0465 |
| AATTCGTA | -0.11 |
| CCTTTGCC | -0.131 |
| GAGAGCGA | -0.225 |
| CACACATG | -0.0905 |
| GGTGTGAA | 0.22 |

| Sequence | PBM E-score |
| --- | --- |
| ACATTAGA | -0.214 |
| CCTAATAG | -0.0857 |
| CGTTGCAG | -0.146 |
| ACATCTAG | -0.273 |
| CTTCATAC | -0.0846 |
| ATCAACAC | 0.113 |
| CCGTGCGA | 0.14 |
| CTGAAAGA | -0.108 |
| TCTAGACA | -0.138 |
| AAGCAGAC | -0.318 |
| AGTGGAAA | -0.173 |
| GGCAATAC | 0.319 |
| CGAGACCG | 0.179 |
| GCCTTCGA | -0.137 |
| CTTATCCA | -0.105 |
| CCATCCCG | -0.0664 |
| AAAAGATA | -0.0528 |
| ACCATGGC | 0.0211 |
| GATTTGCA | -0.121 |
| AACTCCTG | 0.0386 |
| AACCGATA | 0.169 |
| TATCTCAA | -0.218 |
| CTGTCAAA | -0.198 |
| ATAGGCAT | -0.169 |
| ACTACTAT | -0.0231 |

| Sequence | PBM E-score |
| --- | --- |
| GTCACACA | -0.19 |
| GATGGCGC | 0.108 |
| CGTGGATC | -0.124 |
| ACGTAAGA | -0.293 |
| GACTCGAA | -0.0121 |
| TAATTCAA | -0.0688 |
| CTGTCGCC | -0.00604 |
| GCGAGTCC | 0.0882 |
| ATCGGGCC | 0.297 |
| AATCAACA | -0.0804 |
| CTTGAGCC | -0.0692 |
| GAGCTCTA | -0.177 |
| CGCCTGGA | -0.0581 |
| GATCACCC | -0.134 |
| CGTGCACC | -0.0024 |
| ACTGCTGG | -0.276 |
| ACCTACTG | -0.114 |
| CTGCGAGA | -0.238 |
| ACAATTCA | -0.162 |
| ATGTATTC | -0.0488 |
| ACACCTGC | -0.0136 |
| TCCTGTAA | -0.164 |
| CTCGGCCA | 0.0161 |
| AAAGTTTG | -0.169 |
| GCTCAGTA | -0.142 |

| Sequence | PBM E-score |
| --- | --- |
| ACGAGTAA | -0.0273 |
| CTTATAAC | 0.184 |
| ATACAGCG | 0.003 |
| CTACCCAC | -0.153 |
| TCAACAGA | -0.0107 |
| CGCAGTGC | -0.00674 |
| ACGTATCG | -0.154 |
| AGCGAGAA | -0.258 |
| ACGTGCTC | -0.0864 |
| ACGGCTCA | -0.2 |
| ATACTAAC | 0.0209 |
| CAGAAGCA | -0.0951 |
| ACGTACTG | -0.179 |
| CCCGGGCG | 0.298 |
| CACGTAGG | -0.109 |
| CGGAATTC | 0.0284 |
| CTTATTAC | 0.0671 |
| ACCGTGCC | 0.211 |
| GTAAAGTA | -0.0497 |
| CCAATGTA | -0.126 |
| GCACGACC | -0.176 |
| CAAGTGTC | -0.229 |
| AACCAGAG | -0.249 |
| AAGCGGGT | 0.146 |
| ATTCCCTC | -0.179 |

| Sequence | PBM E-score |
| --- | --- |
| CCTTAAGA | -0.0973 |
| GAACAGAA | -0.151 |
| ATATAGAG | -0.107 |
| ACCTCCTA | -0.101 |
| CAGAATCG | 0.0474 |
| GCAGGATA | -0.0221 |
| AGTTACAC | -0.0511 |
| CGACATAC | 0.0202 |
| AGTTGGAT | 0.0412 |
| GACGGCAC | 0.133 |
| GACCCGAC | 0.295 |
| TATCATGA | -0.12 |
| ACCTAGAA | 0.0442 |
| ACCTTATA | 0.0137 |
| CCAAACGG | 0.216 |
| GCCTTCCA | -0.115 |
| AATTGGCC | -0.224 |
| ATTTATAC | 0.194 |
| AGCCGGAC | 0.272 |
| CGCAGGTA | 0.175 |
| GGGGAGAA | 0.179 |
| CGCCCCCC | 0.0618 |
| CCGGTTAA | 0.336 |
| CGTTACTC | -0.0202 |
| CCATCTCA | -0.236 |

| Sequence | PBM E-score |
| --- | --- |
| CAAGTCGC | -0.193 |
| ACGAGCAC | -0.213 |
| ACCTTCAA | -0.0982 |
| AGAAATTG | 0.0922 |
| CCATCGCA | -0.036 |
| GGCCTATA | 0.16 |
| CTACTCTC | -0.151 |
| ATACGCTC | 0.0104 |
| AGTGCGGC | 0.181 |
| AATTTTAG | -0.263 |
| CGTTGGTC | -0.0222 |
| CCTTTCGC | 0.236 |
| ACTCCTAT | -0.00623 |
| CACCGTAG | 0.265 |
| CGCCCGCG | 0.266 |
| CGGGTACA | 0.195 |
| CCTTCCCA | -0.0782 |
| AGTGGGAT | -0.213 |
| AAGACCCA | -0.227 |
| AAATAACA | 0.176 |
| GCACACGC | -0.13 |
| CTAATACA | -0.109 |
